Test results from article PMC12754632, “ZapA uses a two‐pronged mechanism to facilitate Z ring formation in Escherichia coli” (mLife, 2025).
These are yes or no findings as the source states them, for the method shown. For some of these results: Binding seen in cells or lysates may run through a third protein. Some binding calls cover weakened binding; strength is not graded here. For some of these results: Sequences can lack the tags named with a protein.

Key:
[1] = molecular target: T1, H-SUMO-ZapA (Escherichia coli) (UniProt P0ADS2); assay: pull-down; H-SUMO-ZapA (6 μM) and FtsZ (2 μM) in Pol buffer (50 mM HEPES-NaOH pH 6.8, 50 mM KCl, 10 mM MgCl2), GTP in the buffers throughout, held on Ni-NTA agarose, washed with 500 mM NaCl and 20 mM imidazole, eluted with 250 mM imidazole; fractions on SDS-PAGE; both purified
T1 sequence: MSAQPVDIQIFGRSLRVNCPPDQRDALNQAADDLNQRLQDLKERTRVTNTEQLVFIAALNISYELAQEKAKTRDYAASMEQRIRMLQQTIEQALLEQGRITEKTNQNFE

[2] = molecular target: T2, ZapA‐T18 (Escherichia coli) (UniProt P0ADS2); assay: two-hybrid; bacterial two-hybrid: fusions to the T18 and T25 domains of adenine cyclase in strain BTH101, spotted on LB plates with X-gal and IPTG, 30°C, 12 h; blue indicates a positive interaction
T2 sequence: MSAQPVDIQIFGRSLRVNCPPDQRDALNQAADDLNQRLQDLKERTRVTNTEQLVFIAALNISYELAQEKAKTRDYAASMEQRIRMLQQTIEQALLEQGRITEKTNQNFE

[3] = molecular target: T3, ZapA^C19A,T50C–GFP (Escherichia coli) (UniProt P0ADS2); assay: cross-linking; in vivo cysteine cross-linking with 400 μM BMOE, 4°C, 15 min, in PBSG with 5 mM EDTA; DMF as negative control; western blot with antiserum against FtsZ
T3 sequence: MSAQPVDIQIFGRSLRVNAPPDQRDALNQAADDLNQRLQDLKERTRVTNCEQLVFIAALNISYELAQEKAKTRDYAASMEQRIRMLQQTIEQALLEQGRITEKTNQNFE

[4] = molecular target: T4, H-SUMO-ZapA (Escherichia coli), P0ADS2; assay: pull-down; H-SUMO-ZapA (6 μM) and FtsZ (2 μM) in Pol buffer (50 mM HEPES-NaOH pH 6.8, 50 mM KCl, 10 mM MgCl2), GTP in the buffers throughout, held on Ni-NTA agarose, washed with 500 mM NaCl and 20 mM imidazole, eluted with 250 mM imidazole; fractions on SDS-PAGE; both purified; conditions: remark: other sources report otherwise
T4 chain: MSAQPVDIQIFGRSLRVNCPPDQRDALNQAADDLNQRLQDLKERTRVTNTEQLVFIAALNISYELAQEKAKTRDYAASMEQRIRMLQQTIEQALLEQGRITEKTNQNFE

Row | Molecule | binding [2] | further results
1 | wild-type FtsZ (from UniProt P0A9A6 1-383) |  | binding [1]: binds weakly
2 | FtsZ^370–383, two-hybrid fusion (from UniProt P0A9A6 370-383) (domain or fragment) | no binding | 
3 | T25–FtsZ^1–316 with L178E (from UniProt P0A9A6 1-316) (domain or fragment) | no binding | 
4 | FtsZ^N73C (from UniProt P0A9A6 1-383) |  | binding [3]: binds
5 | FtsZ^1‐316 with F2A, T25 fusion (from UniProt P0A9A6 1-316) (domain or fragment) | no binding | 
6 | FtsZ^1–316 with the triple mutation (KER/NAE), T25 fusion (from UniProt P0A9A6 1-316) (domain or fragment) | no binding | 
7 | FtsZ^316–370, two-hybrid fusion (from UniProt P0A9A6 316-370) (domain or fragment) | no binding | 
8 | FtsZ^1–316, T25 fusion (from UniProt P0A9A6 1-316) (domain or fragment) | binds | 
9 | full length FtsZ, two-hybrid fusion (from UniProt P0A9A6 1-383) | binds | 
10 | FtsZ^(D212N, F2A), P0A9A6 1-383 (protein) MAEPMELTNDAVIKVIGVGGGGGNAVEHMVRERIEGVEFFAVNTDAQALRKTAVGQTIQIGSGITKGLGAGANPEVGRNAADEDRDALRAALEGADMVFIAAGMGGGTGTGAAPVVAEVAKDLGILTVAVVTKPFNFEGKKRMAFAEQGITELSKHVDSLITIPNDKLLKVLGRGISLLDAFGAANDVLKGAVQGIAELITRPGLMNVDFANVRTVMSEMGYAMMGSGVASGEDRAEEAAEMAISSPLLEDIDLSGARGVLVNITAGFDLRLDEFETVGNTIRAFASDNATVVIGTSLDPDMNDELRVTVVATGIGMDKRPEITLVTNKQVQQPVMDRYQQHGMAPLTQEQKPVAKVVNDNAPQTAKEPDYLDIPAFLRKQAD |  | binding [4]: binds
